Measured values: PMC4336329 (PLoS ONE, 2015)
In all, about 310,000 compounds went through this assay and about 14,000 (4.5%) showed an effect of 50% or more. The effect is printed as a negative number. This is one part of the list.

Molecular target: human ether-à-go-go-related gene (hERG) potassium channel (human, UniProt Q12809)
Assay: primary screen, population patch clamp on CHO cells stably expressing hERG
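Note: peak tail current of the secondary pulse compared with the same well before compound.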

Sequence of human ether-à-go-go-related gene (hERG) potassium channel (Q12809 whole entry, looked up): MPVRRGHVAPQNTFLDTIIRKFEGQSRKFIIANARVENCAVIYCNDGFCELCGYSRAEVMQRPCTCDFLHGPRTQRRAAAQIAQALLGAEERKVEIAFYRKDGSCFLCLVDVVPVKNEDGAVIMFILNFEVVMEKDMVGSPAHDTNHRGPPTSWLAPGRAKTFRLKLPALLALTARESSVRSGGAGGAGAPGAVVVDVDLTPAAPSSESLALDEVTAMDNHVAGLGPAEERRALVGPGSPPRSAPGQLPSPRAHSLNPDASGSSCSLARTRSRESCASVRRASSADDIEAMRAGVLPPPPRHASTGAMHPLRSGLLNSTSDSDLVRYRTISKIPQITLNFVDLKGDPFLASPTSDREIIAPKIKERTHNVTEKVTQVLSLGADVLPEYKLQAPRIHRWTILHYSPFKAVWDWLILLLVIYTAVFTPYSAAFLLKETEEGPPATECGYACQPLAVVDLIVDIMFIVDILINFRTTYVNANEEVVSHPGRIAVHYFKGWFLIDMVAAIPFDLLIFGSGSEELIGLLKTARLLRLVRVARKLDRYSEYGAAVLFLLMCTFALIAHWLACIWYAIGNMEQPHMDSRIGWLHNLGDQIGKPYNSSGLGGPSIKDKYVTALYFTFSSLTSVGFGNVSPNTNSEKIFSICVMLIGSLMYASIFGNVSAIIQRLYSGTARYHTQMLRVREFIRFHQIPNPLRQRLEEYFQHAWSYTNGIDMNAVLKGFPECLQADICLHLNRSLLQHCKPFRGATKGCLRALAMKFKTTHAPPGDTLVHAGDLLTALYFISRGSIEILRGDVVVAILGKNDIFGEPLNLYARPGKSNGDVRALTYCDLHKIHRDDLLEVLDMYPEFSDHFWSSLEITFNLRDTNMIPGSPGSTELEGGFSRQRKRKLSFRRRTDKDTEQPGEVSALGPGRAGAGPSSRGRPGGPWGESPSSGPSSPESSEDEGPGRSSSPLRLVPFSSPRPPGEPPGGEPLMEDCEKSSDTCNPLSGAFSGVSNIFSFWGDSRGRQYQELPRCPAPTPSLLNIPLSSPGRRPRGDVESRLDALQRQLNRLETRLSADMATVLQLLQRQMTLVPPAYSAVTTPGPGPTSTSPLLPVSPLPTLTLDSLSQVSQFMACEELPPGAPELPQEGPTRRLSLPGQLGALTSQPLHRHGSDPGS

Compound	hERG current change (%, negative = inhibition) at 10uM [%]
COc1ccc(/C=N/N2C(C)CCCC2C)cc1OC (stereo not drawn)	11
CCOC(=O)C1C(c2ccc([N+](=O)[O-])cc2)C2C(=O)NN=C2CC1(C)O (stereo not drawn)	17.9
COc1ccccc1N1CCN(C2CC(=O)N(c3ccc(F)cc3)C2=O)CC1 (stereo not drawn)	0.313
Cc1cc(C)cc(OC(C)C(=O)NCCCn2ccnc2)c1 (stereo not drawn)	1.12
O=[N+]([O-])c1ccc(/C=N/NC(=S)Nc2ccccc2C(F)(F)F)o1	-3.07
CCCCNC(=S)NNC(=O)c1csc(C)c1C	8.49
COc1ccccc1N(CC(O)Cn1c(C)nc2ccccc21)S(=O)(=O)c1ccccc1 (stereo not drawn)	-5.88
O=C(Nc1ccc(C(F)(F)F)cc1)C1CCN(c2cnccn2)CC1	-12.5
Cc1ccc(C)c(N2CCN(C(=O)c3ccc(N4CCOCC4)c([N+](=O)[O-])c3)CC2)c1	-21.2
O=C(CN(Cc1ccccc1)C(=O)CNS(=O)(=O)c1ccccc1)NCc1ccco1	-0.255
O=C(NCCCl)NNc1c(Cl)cc(Cl)cc1Cl	10.3
O=C(CS(=O)(=O)Nc1ccc(F)cc1Cl)Nc1ccc(F)cc1Cl	4.64
Nc1c(C(=O)NCc2ccco2)c2nc3ccccc3nc2n1Cc1ccccc1	7.69
N#Cc1ccc(C(CC(=O)O)N2Cc3ccccc3C2=O)cc1 (stereo not drawn)	0.913
COCCNC(=O)c1ccc(NC(=O)C2(c3ccccc3)CCCC2)cc1	-8.48
CCN(CC(=O)Nc1cc(Cl)ccc1C)C(=O)CCOc1ccc(C)cc1	-8.25
COC(=O)c1ccc(N2CCOCC2)c(F)c1	9.09
COCc1cc(C)nc(OCC(=O)N/N=C/c2ccccc2)c1C#N	-42.3
CC1(NC(=O)C2CCCCC2)CCS(=O)(=O)C1 (stereo not drawn)	21.6
COc1ccccc1CC(=O)N(CCC#N)CCC#N	5.52
O=C(CSc1ccc(-c2ccco2)nn1)N1CCCCC1	12.9
Clc1ccc(Cc2nnc(-c3cccs3)o2)cc1	-17.9
CC1CCCCN1CC(=O)NC(=O)NCc1ccccc1 (stereo not drawn)	16.8

Compound	hERG current change (%, negative = inhibition) at 10uM [%]
COc1ccc2cc(S(=O)(=O)Nc3ccccn3)ccc2c1	9.87
COc1ccc(Nc2nnc(Cc3ccccc3)c(=O)[nH]2)c(OC)c1	3.85
Cc1cc(C(=O)Nc2cccc(C)c2C)c2ccccc2n1	10.2
Cc1cccc(NC(=O)c2n[nH]c([N+](=O)[O-])c2Br)c1C	2.18
O=C(c1ccco1)N1CCc2[nH]nc(-c3ccccc3)c2C1	-1.08
C=CCC1S/C(=N/N=C/c2cccs2)NC1=O (stereo not drawn)	15.3
COCCCn1c(SCC(=O)NC2CCCCC2)nnc1-c1ccco1	-3.26
Cc1ccc(C(=O)/C=C/c2c[nH]c3ccccc23)cc1	-3.22
O=C(NCc1ccc(Cl)cc1)c1cccc2c1C(=O)N(CC1CCCO1)C2 (stereo not drawn)	-70.8
O=C(Nc1ccccc1)C1=C[C@H](c2ccc3c(c2)OCO3)C[C@H](OCc2ccc(CO)cc2)O1	-4.12
O=C(C1CCN(S(=O)(=O)c2cccc3nsnc23)CC1)N1CCCCC1	2.03
CC(C)(C)c1ccc(C(=O)NNC(=O)Cc2ccccc2)cc1	18.2
CS(=O)(=O)Nc1ccc(C(=O)N2CCCC2)cc1	-7.75
N/N=C/C(=N\Nc1ccc(Cl)cc1)C(=O)c1ccncc1	22.3
COc1ccc(Cl)cc1NC(=S)NCc1ccc(S(N)(=O)=O)cc1	2
Cc1ccccc1OCCC(=O)Nc1ccc(F)c(Cl)c1	-9.09
Cc1cc2nnc(SCC(=O)NCc3cccs3)n2c2ccccc12	-22.3
CC(C)(C)C(=O)Nc1sc(-c2ccccc2)cc1C(=O)O	28.3
O=C(Nc1ccc(-c2nc3ccccc3o2)cc1)c1ccc(N2CCOCC2)c([N+](=O)[O-])c1	-4.46
Cc1ccc(CNC(=O)c2cc(S(=O)(=O)N3CCCC3)cn2C)cc1	0.308
Cc1ccc(S(=O)(=O)NCC(c2ccc3c(c2)OCO3)N2CCOCC2)cc1 (stereo not drawn)	-8.63
COc1ccccc1CN(C)c1nnnn1-c1ccccc1	-11
COc1ccc(C(=O)NC(NC(=O)c2ccc(OC)c(OC)c2)c2ccccc2F)cc1OC	7.59

Compound	hERG current change (%, negative = inhibition) at 10uM [%]
O=C(NCc1ccc(Cl)cc1)c1ccc(S(=O)(=O)N2CCCCC2)cc1	5.33
CC(=O)OC1C2CCCC1C(N1CCCC1)CC2.Cl (stereo not drawn)	-5.54
CC(=O)Oc1ccc(C(=O)Nc2ccccc2C(=O)Nc2cccc(C(=O)O)c2)cc1	13
CCCCCCCNC(=O)C1(CC2CC(c3ccc(Cl)cc3)=NO2)CCNCC1 (stereo not drawn)	-63.1
COc1ccc(C2=NN(C(C)=O)C(c3cccs3)C2)cc1OC (stereo not drawn)	-2.48
CN(C)c1ccnc(Nc2ccc(O)cc2)c1C#N	29.4
CCc1ccc(CCC(=O)Nc2ccc(S(N)(=O)=O)cc2)o1	2.43
O=C(CCC(=O)OCC(=O)c1ccc(C(F)(F)F)cc1)OCC(=O)c1ccc(C(F)(F)F)cc1	20.4
COc1ccccc1CNC(=O)CCCC(=O)n1ncc2cc(C)ccc21	1.65
CCN(CC)c1ccc(NC(=O)c2cnn(CC)c2)cc1	-2.83
CC1(C)CSC(Nc2ccc(F)c(Cl)c2)=N1	-10.5
COc1ccc(CN2CCNC(=O)C2CC(=O)NCCCC2CCCC2)c(F)c1 (stereo not drawn)	-31.5
O/N=C1\CCC2CN(C3CCCCC3)CC2C1 (stereo not drawn)	-6.55
O=C(Cc1ccccc1Cl)N1CCN(c2ncccn2)CC1	13.8
Cc1ccc(-n2nnnc2SCc2nnc(-c3ccccc3Br)o2)cc1	-12.2
COc1cc(-c2nnc(SC/C=C/c3ccccc3)n2N)cc(OC)c1OC	-3.66
O=C(CN(Cc1ccco1)C(=O)c1ccc([N+](=O)[O-])cc1)Nc1ccccc1C(F)(F)F	-31.5
O=Cc1cn(Cc2c(F)cccc2Cl)c2ccccc12	6.77
N#CC1=C2SCN(Cc3ccco3)CN2C(=O)CC1c1ccccc1F (stereo not drawn)	2.3
CCN(C(=O)COC(=O)c1ccc(OCc2c(C)noc2C)cc1)c1ccccc1	-3.74
Cn1c(SCCOc2ccc(F)cc2)nnc1-c1ccncc1	-44.4
COc1ccccc1/C=C/C(=O)Nc1cccc(S(=O)(=O)NC2=NCCCCC2)c1	3.64
COc1cc2[nH]c(=S)n(CCN3CCOCC3)c(=O)c2cc1OC	0.519

Compound	hERG current change (%, negative = inhibition) at 10uM [%]
CCCS(=O)(=O)N1CCN(c2ccccn2)CC1	-5.62
N#Cc1cc2cc3c(cc2nc1SCC(=O)N1CCOCC1)OCCO3	23
CC1=C2C(=O)OC(c3ccoc3)C2(C)CCC1 (stereo not drawn)	-24.5
N#CCc1ccc(OC(=O)Nc2ccccc2)cc1	-22.5
Cc1cccc(N2CCN(C(=O)CSc3ccc4c(c3)OCCO4)CC2)c1C	-2.29
CSC1=C(C#N)C(c2ccc(C)cc2)C2=C(CCCC2=O)N1 (stereo not drawn)	-6.02
c1ccc(-c2nnc(N3CCN(c4ccccn4)CC3)c3ccccc23)cc1	-40.6
CC(=O)NC(c1ccco1)c1ccc2cccnc2c1O (stereo not drawn)	0.0798
COc1ccccc1-c1nc2ccccc2nc1-c1ccccc1OC	-0.122
Cc1nc2c(cnn2-c2ccccc2Cl)c(=O)n1-c1ccc(C(C)C)cc1	14
COc1ccc(OC)c(-c2cc(C(=O)N3CCOCC3)no2)c1	7.74
O=C(N[C@@H](Cc1ccccc1)C(=O)CCl)OCc1ccccc1	-0.696
COc1ccc(NC(=O)COC(=O)c2ccc(NS(=O)(=O)/C=C/c3ccccc3)cc2)cc1	0.149
CCN(CCNS(=O)(=O)c1ccc2c(c1)oc(=O)n2C)c1ccccc1	-8.95
CCC1CCCCN1C(=S)Nc1cccc(S(=O)(=O)N(C)C)c1 (stereo not drawn)	-6.73
O=C(Nc1cccc(-c2csc(Nc3cccc(C(F)(F)F)c3)n2)c1)c1cc([N+](=O)[O-])cc(C(F)(F)F)c1	5.05
CCc1ccc(C2CC(c3ccccc3)n3ncnc3N2)cc1 (stereo not drawn)	-17.2
Nc1nc(O)c(Sc2ccccc2[N+](=O)[O-])c(=O)[nH]1	17.7
CC1CCCCC12NC(=O)N(CC(=O)NC(=O)Nc1ccc3c(c1)OCCO3)C2=O (stereo not drawn)	20
CCOC(=O)c1c(NC(=O)CCC(=O)N(CC)CC)sc2c1CC(C)(C)OC2	-9.08
O=C(O)c1ccc(CSc2nnc(-c3ccncc3)n2CC2CCCO2)cc1 (stereo not drawn)	-1.78
